# The source gives no read counts; variants with many changes may rest on few reads.
# B1: CPEB3 Ribozyme (parent)
# chain: UAACAGGGGGCCACAGCAGAAGCGUUCACGUCGCAGCCCCUGUCAGAUUCUGGUGAAUCUGCGAAUUCUGCUGUAUAUCUC
# Variants of: B1
# Experiment: self-cleavage, relative activity (ratio to wild type); higher = more cleavage; in vitro, sequencing
# Method in brief: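 After error-prone PCR and barcoding, CPEB3 ribozyme mutant libraries were transcribed with T7 RNA polymerase at 37°C for 5 hours, then given 15 min with DNase I before an EDTA stop, and they cleaved during both steps. Reverse transcription with template switching preceded Illumina sequencing. Relative activity divides a variant's cleaved/total read fraction by the unmutated ribozyme's. At least 5 reads were required per variant, and three batches were averaged.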
row,Variant,self-cleavage
1,A15U A28U U31A U43C U54C,0.09
2,A15U A28U U54C,0.56
3,A15U A28U U60C U74C,0.1
4,A15U A35G G53U A64G U69C A77G,0.7
5,A15U A35G U49C,0.83
6,A15U A35G U60A,0.72
7,A15U A35U A47G A56G G61A,0.06
8,A15U A35U A64G,0.31
9,A15U A35U C44U U76C,0.17
10,A15U A35U U66C,0.27
11,A15U A47C A56G U66A A77G,0.09
12,A15U A47G A64U U78C,0.12
13,A15U A47G A75U U78C,0.98
14,A15U A47G U48C,0.24
15,A15U A56G U60C U67A A75C,0.16
16,A15U A56U A57G,0.19
17,A15U A56U U58A U72C,0.11
18,A15U A56U U69A A75G A77G,0.2
19,A15U A57G A64G U69C,0
20,A15U A57G A65U,0.42
21,A15U A57G U69A U80C,0.61
22,A15U A64G U66C U72C,0.2
23,A15U C17A A35G C59U,0.43
24,A15U C17U C32A A35U G53A,0.04

row,Variant,self-cleavage
1,A15U C17U G24A U25C U51C,0.38
2,A15U C17U U31C U51A U69A,0.09
3,A15U C23A U26A U72A G73A,0.45
4,A15U C23A U31A,0.2
5,A15U C23A U58G,0.17
6,A15U C23G U31G A56G U60C A65G,0.09
7,A15U C23U U26C U49C G63A A65G,0.04
8,A15U C27A G53C,0.06
9,A15U C27A U31A U49C U58C A64U U74A,0.02
10,A15U C27U G63A,0.17
11,A15U C29A U49C U72C,0.29
12,A15U C29G U49C U51C U76C,0.06
13,A15U C29U U43C A64G U69C U72C,0.04
14,A15U C29U U54C U80C,0.15
15,A15U C29U U69G,0.41
16,A15U C32U U74C,0.12
17,A15U C37A A64G,0.21
18,A15U C37A U51C,0.14
19,A15U C37U U43A A45G,0.31
20,A15U C38U G63A,0.46
21,A15U C39U U48C C71G,0.04
22,A15U C40U A57G U67C U78A,0.05
23,A15U C40U A64G U78C,0.14
24,A15U C40U U41G A56G,0.17

row,Variant,self-cleavage
1,A15U C40U U43A U72A U80C,1
2,A15U C44A A45G,0.22
3,A15U C44U U60A U74C A75G,0.11
4,A15U C50G U54C A64U U72A U78C,0.1
5,A15U C62U A64G,0.16
6,A15U G19U U58C U67C,0.09
7,A15U G24A A35U,0.17
8,A15U G30A A45U A77U,0.08
9,A15U G30A C34U,0.07
10,A15U G30A C34U U67C,0.07
11,A15U G33U C38U,0.13
12,A15U G42A U49C U78A,0.14
13,A15U G42A U58C U80C,0.03
14,A15U G55A A56U C62U,0.09
15,A15U G55A A77G,0.35
16,A15U G55U G70A,0.2
17,A15U U25A A35G U51C G61A,0.11
18,A15U U25A C38U A64C U72A,0.12
19,A15U U25A U31A,0.04
20,A15U U25A U48C,0.49
21,A15U U25C A28G U54C A64C,0.1
22,A15U U25C A35U U54C U74A,0.18
23,A15U U25C A45U A77U U78C,0.1
24,A15U U25C A65G,0.22

row,Variant,self-cleavage
1,A15U U25C C62U U69A,0.08
2,A15U U25C G63U,0.22
3,A15U U25C U26C A65G,0.07
4,A15U U25C U31C A56G U80A,0.41
5,A15U U25C U43C A45G C71U,0.09
6,A15U U25C U51C,0.15
7,A15U U25G A57U A64G U69A,0.1
8,A15U U26A A35U U41C G53C U72C,0.23
9,A15U U26A G42U U48A A57G U74C,0.17
10,A15U U26A G63A,0.21
11,A15U U26A U48C U69A,0.24
12,A15U U26C A45U U60C,0.42
13,A15U U26C A57G,0.21
14,A15U U26C A57G C68U,0.19
15,A15U U26C A65U U80C,0.22
16,A15U U26C U41A,0.15
17,A15U U26C U41G A57U,0.13
18,A15U U26C U48C U49C,0.12
19,A15U U26C U67C,0.19
20,A15U U26G U31A A65U U76A,0.41
21,A15U U26G U51A,0.17
22,A15U U31A A75U,0.42
23,A15U U31A G55A,0.26
24,A15U U31A U51C U69C,0.14

row,Variant,self-cleavage
1,A15U U31A U54A A56G A64G,0.14
2,A15U U31C A35U A47G,0.33
3,A15U U31C A56U A57G A77U,0.06
4,A15U U31C G46A U60A U66A A77U,0.16
5,A15U U31C U41C U69G,0.17
6,A15U U31C U43C A56G U72C,0.15
7,A15U U31C U60C C81U,0.15
8,A15U U41A A56G A64C A77U U80C,0.06
9,A15U U41A A64G A65G,0.16
10,A15U U41A G52U,0.19
11,A15U U41C C50A U78A,0.18
12,A15U U41C U43A,0.49
13,A15U U41C U43C,0.12
14,A15U U43A A45U,0.33
15,A15U U43A C71U,0.45
16,A15U U43C A65G U80A,0.18
17,A15U U43C G46A U67A U72C U80C,0.16
18,A15U U43C U48C,0.39
19,A15U U43C U58A U60C,0.12
20,A15U U48A A56G A57G U80C,0.11
21,A15U U48A U67C U78C,0.2
22,A15U U48C C71U,0.13
23,A15U U48C U49C A64G U80C,0.06
24,A15U U48C U51G A56G,0.25

row,Variant,self-cleavage
1,A15U U49A U72C,0.55
2,A15U U49C U60C,0.13
3,A15U U49C U80A,0.11
4,A15U U51A U58A U66C U78A,0.21
5,A15U U51A U66A U67A,0.19
6,A15U U51C A57G U76C,0.5
7,A15U U54A A56G U80C,0.56
8,A15U U54A G63A U66C,0.27
9,A15U U54A U76C U80C,1.14
10,A15U U54C U60C,0.19
11,A15U U54C U67A,0.19
12,A15U U60A G63A A64U U78C,0.12
13,A15U U60C U74C,0.31
14,A15U U67A U72G U74C U80C,0.08
15,A15U U67C U78C,0.11
16,A15U U69G U80C,0.23
17,A15U U72A G73C,1.28
18,A15U U72C G73U A77C,0.78
19,A15U U72G U76A,0.81
20,A15U U74C A75U U80C,1.15
21,A15U U74C U78C,1.04
22,A15U U78A U80C,0.74
23,A15U U78C U80C,1.09
24,G16A A18U A35U U69A,0.71

row,Variant,self-cleavage
1,G16A A20C U51A,0.23
2,G16A A20U G42U U54C,0.14
3,G16A A21C U54A A57C A64G,0.03
4,G16A A21G U60C,0.05
5,G16A A45G U69C,0.12
6,G16A A57C A65G A75U,0.09
7,G16A A65G U69C C79U,0.08
8,G16A C29G A45G U66C,0.17
9,G16A C44U U58C U67A,0.11
10,G16A C62U G70A,0.15
11,G16A G42A A45U,0.21
12,G16A U25C A65G U76A,0.04
13,G16A U25C U43C A77U,0.04
14,G16A U26A A56G,0.16
15,G16A U26A U60C A75G,0.08
16,G16A U26G U48C,0.13
17,G16A U48C A57U U67C,0.11
18,G16A U51A U80A,0.45
19,G16A U51C U54C A64G,0.1
20,G16C A20G U49A,0.08
21,G16C A21G A28U G42U U54A G61A,0.13
22,G16C A21G U31G A56G U66G,0.03
23,G16C A28G A45U,0.27
